Data reported in the supplement of paper PMC11417369.
± gives the standard deviation of the averaged measurements. The list shows a part of the results.

System: PfAP2-EXP AP2 domain (GST-tagged)
Assay: gcPBM binding intensity (ln(normalized median fluorescence intensity)); higher = stronger DNA binding
Outline: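 GST-tagged P. falciparum DNA-binding domains, expressed in E. coli (about 25 μg on average), were applied for 1 h to an Agilent 4 × 180k array of primer-extended double-stranded 36-bp intergenic genomic probes plus negative controls. The binding buffer was 1× PBS with 1% milk, 0.2 mg/ml BSA, 0.5% salmon testes DNA and 0.03% Triton X-100. Bound protein was detected with Alexa488 anti-GST antibody and scanned at 488 nm. Binding intensity is the highest Masliner-normalised natural-log median intensity across replicate spots of either probe orientation.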

Sequence	gcPBM binding intensity (ln)
ATTGATACATCCAATACACACTACAGATAATGATGT [CACACA_site5098]	8.42 ± 0.44
GTAATAAATTAAATATGTACATATTAAAATTAAGGA [XGTACX_site2290]	8.63 ± 0.27
TGCTACATAATATGTACACACATATACATATTTATA [CACACA_site6545]	8.46 ± 0.27
TATCACATTTATGAGAGTACATAATTAATTCATGAT [XGTACX_site7850]	8.29 ± 0.3
GTATGATTAAATAAAGGTACACTTATATTTATTTAT [XGTACX_site6966]	8.44 ± 0.27
TTCTTTTTTGTAATAACACACACACTAACAGAAAAA [CACACA_site8646]	8.8 ± 0.49
CATAATACAAATGTGATACCTGAAAATGACTTATTA [CACACA_negctrl_site994]	8.53 ± 0.24
GAATTAATTTTAAAACGTACATGGGTGTATTTACAC [XGTACX_site5939]	8.86 ± 0.3
GTTAGGATAGATTAGACATGCACATAAATGCACTTC [TGCATGCA_site561]	8.66 ± 0.028
TTTTTATAGAATTTAACACACATTTCATATAAAAAA [CACACA_site7453]	8.22 ± 0.28
TATATAACATAATATACACACATTATATGCGTAATT [CACACA_site6098]	8.21 ± 0.4
TTAAAATTCAAAAAAAAAAATCAGAATATCAGAAAA [CACACA_negctrl_site1361]	8.3 ± 0.45
GATATATAAATAAATACACACATAAAATAGAAATAT [CACACA_site6881]	8.93 ± 0.53
ATTAAAGAAATATATACACACATTATGGGGGAATAA [CACACA_site178]	9.47 ± 0.42
ACATATTAAAATATATGTACATAAAATATGAAAAAA [XGTACX_site5869]	8.82 ± 0.3
ATATTTATTCCTTTTGGTACACAAAAAAAAAAAAAA [XGTACX_site8126]	8.51 ± 0.51
TTTAAATGCTTTTTGTGGTGACTTATCCTTTCATAA [XGTACX_negctrl_site109]	8.74 ± 0.46
AATTATTTCTTTTACACATGCAATATTTAATTAAAA [TGCATGCA_site598]	8.81 ± 0.31
TATATGCTATAATATACACACATACCTATATTTATA [CACACA_site6383]	8.64 ± 0.4
AATTTAAGCAGAACATATATATATATATATATAAAG [CACACA_negctrl_site769]	8.66 ± 0.32
TTATTTGATTACTTGCGTACTTATTTCATATTTTTT [XGTACX_site6648]	8.87 ± 0.36
GGGATATTTTAAAGGGTGCATATTATTAAAATAATG	8.97 ± 0.13
ATGAGAAAACATAAAAGTACAAAAAGAAAAAAAAAA [XGTACX_site6020]	8.57 ± 0.39
TATTATATTAATGATGGTACAGTGTATATATATAAT [XGTACX_site1286]	8.9 ± 0.35
